{
  "source": "PubChem BioAssay (NCATS)",
  "key": {"[1]": {"assay": "qHTS to identify inhibitors of the type 1 interferon - major histocompatibility complex class I in skeletal muscle: primary screen against the NCATS Mechanism Interrogation Plate v5.0 (MIPE) Libary (AID 1347411); also: potency is read from the fitted curve at half-maximal effect; nearly all actives have a fitted effect of over 65% in size", "settings": "iHSKM cells + IFN-b, HiBiT-tagged MHC-I luminescence, 24 h; activity change, negative = inhibition: at 45.8 µM (top of the series) unless noted", "in_short": "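Immortalized human C25cl48 myoblasts with HiBit knocked into endogenous HLA-B*08:01 were stimulated with 4.0 ng/ml IFN-beta and exposed to compounds (11-point 1:3 titration, top 46 uM final) for 24 hrs at 37 C; HiBiT lytic luminescence measured.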"}, "Es-2": {"system": "Es-2", "assay": "Primary qHTS to identify gynecologic anti-cancer compounds using libraries of approved drugs and bioactive compounds (AID 1345084); also: nearly all actives have a fitted effect of over 55% in size; also: potency is read from the fitted curve at half-maximal effect; as to activity change, negative = cytotoxicity: % is scaled to controls: 0 for no effect and ±100 for the full control effect", "settings": "Gynecologic cancer cell panel viability, ATPlite luminescence, 48 h; series mostly up to 57.5 µM", "in_short": "(§1)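 Luminescence from the ATPlite ATP-monitoring reagent indicates viable cell number; lower signal means cytotoxicity. Cells received compound 16 h after seeding and were exposed for 48 h across five concentrations.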"}, "HeLa": {"system": "HeLa", "assay": "Primary qHTS to identify gynecologic anti-cancer compounds using libraries of approved drugs and bioactive compounds (AID 1345084)", "settings": "Gynecologic cancer cell panel viability, ATPlite luminescence, 48 h; series mostly up to 57.5 µM", "in_short": "as §1"}, "Hek293T": {"system": "Hek293T", "assay": "Primary qHTS to identify gynecologic anti-cancer compounds using libraries of approved drugs and bioactive compounds (AID 1345084)", "settings": "Gynecologic cancer cell panel viability, ATPlite luminescence, 48 h, control line for the selectivity index; series mostly up to 57.5 µM", "in_short": "as §1"}, "JEG-3": {"system": "JEG-3", "assay": "Primary qHTS to identify gynecologic anti-cancer compounds using libraries of approved drugs and bioactive compounds (AID 1345084)", "settings": "Gynecologic cancer cell panel viability, ATPlite luminescence, 48 h; series mostly up to 57.5 µM", "in_short": "as §1"}, "OV90": {"system": "OV90", "assay": "Primary qHTS to identify gynecologic anti-cancer compounds using libraries of approved drugs and bioactive compounds (AID 1345084)", "settings": "Gynecologic cancer cell panel viability, ATPlite luminescence, 48 h; series mostly up to 57.5 µM", "in_short": "as §1"}, "SKOV3": {"system": "SKOV3", "assay": "Primary qHTS to identify gynecologic anti-cancer compounds using libraries of approved drugs and bioactive compounds (AID 1345084)", "settings": "Gynecologic cancer cell panel viability, ATPlite luminescence, 48 h; series mostly up to 57.5 µM", "in_short": "as §1"}, "Tov-21-G": {"system": "Tov-21-G", "assay": "Primary qHTS to identify gynecologic anti-cancer compounds using libraries of approved drugs and bioactive compounds (AID 1345084)", "settings": "Gynecologic cancer cell panel viability, ATPlite luminescence, 48 h; series mostly up to 57.5 µM", "in_short": "as §1"}, "PA-1": {"system": "PA-1", "assay": "Primary qHTS to identify gynecologic anti-cancer compounds using libraries of approved drugs and bioactive compounds (AID 1345084)", "settings": "Gynecologic cancer cell panel viability, ATPlite luminescence, 48 h; series mostly up to 57.5 µM", "in_short": "as §1"}, "Tov112D": {"system": "Tov112D", "assay": "Primary qHTS to identify gynecologic anti-cancer compounds using libraries of approved drugs and bioactive compounds (AID 1345084)", "settings": "Gynecologic cancer cell panel viability, ATPlite luminescence, 48 h; series mostly up to 57.5 µM", "in_short": "as §1"}, "[2]": {"assay": "Primary fluorescence-based thiol-reactive (MSTI) qHTS assay for identification of artifact compounds. (AID 1845221)", "in_short": "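Compounds were incubated 1 h at room temperature in the dark with the MSTI probe (4 uM) in PBS pH 7.4, 2% DMSO. Signals were normalized between Acetyl-MSTI and MSTI.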"}, "[3]": {"assay": "Primary redox qHTS assay for identification of artifact compounds. (AID 1845223)", "in_short": "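Amplex Red (25 uM) and HRP (250 mU/mL) in HBSS, with compounds for 15 min, then 250 uM DTT for 30 min, room temperature, dark. Fluorescence 525/598 nm read; normalized to DMSO and 10 uM DA3003; Hill fit.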"}, "[4]": {"system": "Zika virus NS2B-NS3 protease (unlinked complex)", "assay": "Primary screen GU Rhodamine qHTS for Zika virus inhibitors: Unlinked NS2B-NS3 protease assay (AID 1347159)", "settings": "Recombinant ZIKV NS2B-NS3 protease, Rhodamine110 substrate fluorescence; activity change, negative = inhibition: at 107 µM (top of the series)", "in_short": "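Noncovalent NS2B hydrophilic domain–NS3 protease domain complex (25 nM) preincubated 15 min at room temperature with compounds (up to 114 microM) in 10 mM Tris-HCl pH 8.0, 0.01% Tween 20; 1.5 microM Rhodamine110 substrate added, fluorescence change over 15 min fitted to Hill equation.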"}, "[5]": {"assay": "Primary qHTS for inhibitors of nuclear receptor binding SET domain protein 2 (NSD2) in an RCH-ACV wild type WT cells (2C) (AID 1645877)", "settings": "activity change, negative = cell killing: at 44.9 µM (top of the series) unless noted"}},
  "note": "The inconclusive results got no clear call from the source; some entries with a clear call stand among them for comparison. For some assays here: Potencies beside an inconclusive call are fits to weak or partial responses and may not hold up. Calls of active or inactive are those of the source. Calls follow the shape of the dose curve; as a rule, active = well fitted curve in the direction sought with a large enough effect; inconclusive = small, poorly fitted or top-dose-only effect, or another doubt; inactive = no such curve, though single readings can be large; an effect the other way counts as inactive or inconclusive. For activity change, negative = cell killing in this document: % is scaled to controls: 0 for no effect and ±100 for the full control effect; nearly all actives have a fitted effect of over 70% in size. Tags tell the direction and shape of the fitted curve.",
  "data": [
    {"compound": "CC(=O)Nc1ccc(C(=O)Nc2ccccc2N)cc1", "values": [
      {"measurement": "Potency", "setting": "[1]", "value": "inconclusive: 5.23 µM [inhibitor, partial curve]"},
      {"measurement": "Potency", "setting": "Es-2", "value": "inconclusive: 10 µM [cytotoxic, partial curve]"},
      {"measurement": "Potency", "setting": "HeLa", "value": "inconclusive: 8.91 µM [cytotoxic, partial curve]"},
      {"measurement": "Potency", "setting": "Hek293T", "value": "inconclusive: 10 µM [cytotoxic, single point]"},
      {"measurement": "Potency", "setting": "JEG-3", "value": "inconclusive: 4.47 µM [cytotoxic, partial curve]"},
      {"measurement": "Potency", "setting": "OV90", "value": "active: 3.98 µM"},
      {"measurement": "Potency", "setting": "SKOV3", "value": "inconclusive: 10 µM [cytotoxic, single point]"},
      {"measurement": "Potency", "setting": "Tov-21-G", "value": "inconclusive: 8.91 µM [cytotoxic, partial curve, poor fit]"}
    ]},
    {"compound": "O=C(Nc1cccc(C(F)(F)F)c1)c1ccccc1NCc1ccncc1", "values": [
      {"measurement": "Potency", "setting": "Es-2", "value": "inconclusive: 39.8 µM [cytotoxic, single point]"},
      {"measurement": "Potency", "setting": "Hek293T", "value": "inconclusive: 39.8 µM [cytotoxic, single point]"},
      {"measurement": "Potency", "setting": "OV90", "value": "inactive"},
      {"measurement": "Potency", "setting": "PA-1", "value": "inconclusive: 31.6 µM [cytotoxic, single point]"},
      {"measurement": "Potency", "setting": "SKOV3", "value": "inconclusive: 0.708 µM [rising, full curve, poor fit]"},
      {"measurement": "Potency", "setting": "Tov112D", "value": "inconclusive: 28.2 µM [cytotoxic, single point]"}
    ]},
    {"compound": "CC1(C(=O)O)CC[C@]2(C(=O)OC3OC(CO)C(O)C(O)C3O)CC[C@]3(C)C(=CCC4[C@@]5(C)CC[C@H](OC6OCC(O)C(O)C6OC6OC(CO)C(O)C(O)C6O)C(C)(C)C5CC[C@]43C)C2C1", "note": "(stereo partly specified)", "values": [
      {"measurement": "Potency", "setting": "[2]", "value": "inconclusive: 8.98 µM [inhibitor, single point]"},
      {"measurement": "Potency", "setting": "[3]", "value": "inconclusive: 5.05 µM [activator, partial curve, poor fit]"},
      {"measurement": "activity change, negative = cytotoxicity", "setting": "Es-2", "value": "inactive: 1.53% [at 11.6 µM]"},
      {"measurement": "activity change, negative = cytotoxicity", "setting": "HeLa", "value": "inactive: 6.18% [at 11.6 µM]"},
      {"measurement": "activity change, negative = cytotoxicity", "setting": "SKOV3", "value": "inactive: -6.88% [at 11.6 µM]"}
    ]},
    {"compound": "CC(=O)O[C@@H]1C(O)C[C@@]2(C)C(CC[C@@H](C)C23Cc2c(O)cc4c(c2O3)CNC4=O)C1(C)C", "note": "(stereo partly specified)", "values": [
      {"measurement": "Potency", "setting": "[4]", "value": "inconclusive: 28.2 µM [inhibitor, partial curve, poor fit]"},
      {"measurement": "Potency", "setting": "[5]", "value": "inactive"},
      {"measurement": "Potency", "setting": "[3]", "value": "inconclusive: 13 µM [activator, single point]"},
      {"measurement": "Potency", "setting": "Es-2", "value": "inactive"},
      {"measurement": "Potency", "setting": "HeLa", "value": "inconclusive: 10 µM [rising, partial curve, poor fit]"},
      {"measurement": "Potency", "setting": "Hek293T", "value": "inactive"},
      {"measurement": "Potency", "setting": "SKOV3", "value": "inconclusive: 17.8 µM [rising, single point]"}
    ]}
  ]
}
